Test results from the supplement of paper PMC12217912.
Some of the results follow. Sequences were assembled here from the parent chain. Inactive controls read about 0.05.

B1: TEV protease; numbered along this chain (parent)
chain: MGESLFKGPRDYNPISSSICHLTNESDGHTTSLYGIGFGPFIITNKHLFRRNNGTLVVQSLHGVFKVKDTTTLQQHLVDGRDMIIIRMPKDFPPFPQKLKFREPQREERICLVTTNFQTKSMSSMVSDTSCTFPSGDGIFWKHWIQTKDGQCGSPLVSTRDGFIVGIHSASNFTNTNNYFTSVPKNFMELLTNQEAQQWVSGWRLNADSVLWGGHKVFMVKPEEPFQPVKEATQL

Variants of: B1
Experiment: raw area under fraction-flipped curve 0-4 h after induction (AUC4h, not background-subtracted), DNA-recorder readout of cleavage of the substrate (dimensionless); higher = more cleavage of the substrate by the protease variant
Details: temperature: 34 °C; time window: 0-4 h after rhamnose induction
Protocol: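 In vivo DNA recorder in E. coli TOP10(DE3) ΔrhaA at 34 °C. Each TEVp single-site mutant (parent TEVp 0) is paired with a single-site variant of the 7-mer TEVs (canonical ENLYFQ|S). The substrate sits between flexible linkers in a Bxb1-sfGFP-TEVs-SsrA fusion, so cleavage stabilises Bxb1 and speeds flipping of a recombination array, read by NGS. The value is the raw area under the fraction-flipped curve over 0-4 h after rhamnose induction (AUC4h), with ≥20 reads per time point. It is not background-subtracted; inactive controls average about 0.047.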
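Also: Bxb1 expression induced with 0.2% (w/v) L-rhamnose at OD600 near 0.5, cultures sampled hourly, flipped fraction per protease–substrate barcode pair counted by paired-end Illumina sequencing.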

Variant | area with substrate ENLYAQS | area with substrate ENLYCQS | area with substrate ENLYDQS | area with substrate ENLYEQS | area with substrate ENLYGQS | area with substrate ENLYHQS | area with substrate ENLYKQS | area with substrate ENLYMQS | area with substrate ENLYNQS | area with substrate ENLYPQS | area with substrate ENLYQQS | area with substrate ENLYRQS | area with substrate ENLYTQS | area with substrate ENLYVQS | area with substrate ENLYYQS | area with substrate ENLYLQS | area with substrate ENLYWQS | area with substrate ENLYIQS | area with substrate ENLYSQS
S4Q | 0.101 | 0.0855 | 0.0626 | 0.0692 | 0.0721 | 0.0685 | 0.0667 | 0.105 | 0.0706 | 0.0524 | 0.0405 | 0.0711 | 0.101 | 0.133 | 0.0687 | – | – | – | –
L5V | 0.086 | – | – | 0.0666 | 0.044 | 0.067 | 0.044 | 0.103 | 0.0633 | – | 0.0746 | 0.0626 | – | 0.119 | 0.0711 | 0.0897 | 0.0889 | – | –
S17T | 0.0815 | – | 0.0576 | 0.0802 | 0.0507 | 0.0677 | 0.0578 | 0.0874 | 0.0672 | – | 0.0684 | 0.0599 | 0.0827 | – | 0.0713 | 0.0804 | – | 0.132 | 0.0659
S26Y | 0.0548 | 0.0643 | 0.0645 | 0.112 | 0.0546 | – | 0.0325 | – | 0.065 | 0.0666 | 0.057 | 0.0639 | 0.0545 | – | – | 0.061 | 0.0642 | 0.0626 | 0.071
E3T | 0.0802 | – | 0.0614 | – | – | – | – | – | – | – | – | – | – | 0.17 | – | – | – | 0.129 | –
E3L | 0.0645 | 0.0747 | 0.0624 | 0.0674 | – | 0.108 | 0.0101 | 0.0573 | 0.0614 | 0.0607 | 0.0529 | 0.0601 | – | – | 0.0688 | 0.0646 | 0.0664 | 0.0865 | –
K7L | 0.0875 | – | – | 0.0644 | 0.0635 | – | 0.0709 | – | 0.0628 | 0.0572 | – | 0.0609 | 0.0632 | – | – | 0.101 | 0.0663 | – | –
F41H | 0.0721 | – | 0.0587 | 0.061 | 0.0618 | 0.064 | – | 0.0817 | 0.0621 | 0.0892 | 0.0563 | 0.0585 | – | – | – | 0.0885 | 0.0881 | – | –
G37Y | 0.0494 | – | 0.0586 | 0.0518 | 0.0564 | 0.0495 | 0.0415 | 0.0436 | 0.0597 | 0.0664 | – | 0.0593 | 0.06 | – | – | 0.0687 | 0.0503 | 0.0703 | 0.056
T30I | 0.0401 | – | 0.0518 | 0.0585 | 0.064 | 0.0617 | 0.0676 | 0.0805 | – | 0.116 | 0.0548 | 0.0553 | – | – | 0.0654 | – | 0.0794 | – | 0.0933
T30P | 0.0732 | – | 0.0645 | – | 0.07 | – | 0.0689 | 0.0797 | 0.0505 | – | 0.0754 | – | – | 0.0803 | – | – | – | 0.102 | –
R10Y | 0.0424 | 0.104 | 0.0621 | 0.0642 | 0.0654 | 0.0544 | 0.0573 | 0.0684 | 0.0494 | 0.0699 | 0.0562 | 0.0627 | – | 0.0594 | 0.0697 | – | – | 0.101 | –
R10F | 0.0774 | 0.0845 | 0.0661 | 0.0684 | 0.0595 | 0.0662 | 0.0652 | 0.0729 | 0.0676 | 0.0658 | 0.0734 | 0.059 | – | – | 0.0675 | 0.0644 | 0.0721 | 0.0883 | 0.163
